The text below walks through data of ChEMBL document CHEMBL4888484, “Replenishing the malaria drug discovery pipeline: Screening and hit evaluation of the MMV Hit Generation Library 1 (HGL1) against asexual blood stage Plasmodium falciparum ,using a nano luciferase reporter read-out” (2022).

What is called % Inhibition is the change of the read-out against control, counted positive when it falls.

SMILES strings stand for the structures. Hit rate of the full screen: of about 150,000 compounds, about 540 (0.36%) showed an effect of 50% or more. The list shows a part of the results.

For the experiment, the system named is Plasmodium falciparum. The experiment is described as follows: Primary screen in NF54 nanoGlo assay, in single point, at 2uM, 72h; a lower Z score goes with more inhibition. The settings on record: timepoint 72 hour. The experiment is classed as functional, Erythrocyte.
For the compound `O=C(NCCc1ccc(F)cc1)[C@@H]1CCCCO1`, the “% Inhibition” value was -3% and the Z score is 0.51.
The corresponding values for `Cc1cccc2c(N3CCC[C@H]3c3nncn3CC(C)C)ncnc12` are -3% and 0.29.
The corresponding values for `Cc1nc(COC2CCN(C(=O)[C@H]3CCC(=O)N3)C2)cs1` (stereo partly specified) are -8% and 1.15.
Taken in the same sequence, the figures for `O=C1CC(CC(=O)N2CC3CCC2C3)(c2ccccc2)C(=O)N1CCCOc1cccnc1` (stereo unspecified) were 11% and -1.5.
For the compound `CCCn1cnnc1CN(C)C(=O)N[C@H]1CCN(C)C[C@H]1Cc1ccccc1`, the “% Inhibition” value is listed as -4% and the Z score was determined as 0.8.
The corresponding values for `C[C@@H](C(=O)Nc1ccc(Cl)cn1)N1CCNC(=O)C1` are -10% and 0.87.
In the case of `CCOC(=O)NC1CCN([C@@H](C)C(=O)NC(C)(C)CC)CC1`, the “% Inhibition” value is recorded as 6% and the Z score is recorded as -0.72.
Taken in the same sequence, the figures for `CN(C[C@@H]1CC=CCC1)C(=O)c1cnnn1C` were 2% and -0.27.
Taken in the same sequence, the figures for `CCc1nc(C#N)cc(N2CCOC[C@@H]2Cc2ccccc2)n1` were -14% and 1.14.
On to `Cn1nnc2cc(CN3CCO[C@@]4(CCCOC4)C3)ccc21`, for which the “% Inhibition” value was -6% and the Z score worked out at 1.1.
On to `O=C(c1cccc(Cl)c1)[C@H]1CCCN(C(=O)CN2CCOCC2)C1`, for which the “% Inhibition” value is recorded as -5% and the Z score came out at 0.89.
Taken in the same sequence, the figures for `Cc1nc(CC#N)sc1C(=O)OC(C)(C)C` were 2% and -0.25.
Taken in the same sequence, the figures for `Oc1c(Cl)c(Nc2ccccc2)c(O)n1-c1ccccc1` were 27% and -3.59.
Taken in the same sequence, the figures for `Cn1ccnc1[C@@H]1c2nc[nH]c2CCN1Cc1cn(CC(N)=O)c2ccccc12` were -3% and 0.37.
Take `CN1CCC(N(c2ccccc2)S(=O)(=O)c2ccc(C(C)(C)C)s2)CC1`: the “% Inhibition” value is listed as -1% and the Z score was determined as 0.07.
The corresponding values for `Cc1nn(C(C)(C)C)cc1C(C)NC(=O)N(C)CC1CCCC1O` (stereo unspecified) are -10% and 1.74.
The corresponding values for `Clc1ccccc1CCn1ccnc1[C@@H]1CCCCO1` are -8% and 1.15.
The corresponding values for `OC1(C(F)(F)F)CCN(Cc2c[nH]nc2-c2cccnc2)CC1` are -18% and 1.54.
Take `CCc1ccc([C@@H]2CN(C(=O)Nc3ccc4[nH]ccc4c3)CCO2)cc1`: the “% Inhibition” value is recorded as 4% and the Z score is listed as -0.53.
The corresponding values for `COc1ccc(OC)c(-c2cc(C(=O)N3CC[C@H](N4C(=O)COC4=O)C3)n(C)n2)c1` are -9% and 1.05.
Taken in the same sequence, the figures for `CC(C)c1ccn(C2(C(=O)O)CCN(c3nccc4occc34)CC2)n1` were -11% and 1.84.
Turning to `COc1cccc(Cn2cnc(C)c(C)c2=O)c1Cl`, the “% Inhibition” value was 6% and the Z score is given as -0.74.
The corresponding values for `CCCOC1(CNC(=O)[C@@H]2CCCN2C(=O)c2ccccn2)CCCCC1` are -11% and 1.45.
Taken in the same sequence, the figures for `CNCC=CCOc1ccc(C)c(C)c1` were 2% and -0.28.
Consider `CN(C)c1nc(-c2ccccc2CN2CCOCC2)ncc1F`, for which the “% Inhibition” value is listed as -8% and the Z score came to 1.53.
On to `Cn1ccc(C(=O)N2CCC[C@H](c3cc(F)ccc3F)C2)cc1=O`, for which the “% Inhibition” value came to 1% and the Z score was -0.16.
The corresponding values for `c1ccc(C[C@H](NCCc2ccc3c(c2)OCO3)C2CC2)nc1` are -5% and 0.64.
Taken in the same sequence, the figures for `Cc1nc([C@@H]2CCCN2Cc2nnn(C)n2)cs1` were -7% and 1.27.
Taken in the same sequence, the figures for `CS(=O)(=O)N1C[C@H]2CC[C@@H](C1)N(C(=O)Cc1ccc(F)cc1F)C2` were -3% and 0.49.
Regarding `CCC[C@H]1CN(c2nc3ccccc3n2CCO)C[C@@H]1N`, the “% Inhibition” value is listed as -1% and the Z score is listed as 0.11.
Take `C[C@]1(O)CCN(Cc2ccc3c(c2)OCCO3)C[C@H]1Cc1ccccc1`: the “% Inhibition” value is on record as -5% and the Z score came out at 0.88.
As to `COc1cccc(CN(Cc2ccc(CC3CCN(C)CC3)cc2)C2CC2)c1`, the “% Inhibition” value is reported as -7% and the Z score turned out to be 1.34.
The corresponding values for `O=C(Nc1ccccc1-c1ccccc1)c1ccoc1` are -10% and 1.88.
Taken in the same sequence, the figures for `CC(=O)N1CCn2nc(C(=O)N(C)Cc3cc(-c4cccs4)n[nH]3)cc2C1` were -17% and 2.67.
The corresponding values for `O=C(O)c1ccc2nc(-c3ccc4c(c3)CCC4)[nH]c2c1` are -5% and 0.75.
For `CCS(=O)(=O)N1CCCC[C@H](NC(=O)c2ccc(-n3cnnn3)cc2O)C1`, the “% Inhibition” value is on record as -11% and the Z score is reported as 1.62.
Taken in the same sequence, the figures for `CCCn1cc(-c2c[nH]c([C@H]3CC(=O)N(CC(C)C)C3)n2)c(C)n1` were 1% and -0.2.
As to `COc1ncccc1NC(=O)N(C)[C@@H](C)c1ccc(C)s1`, the “% Inhibition” value came to 2% and the Z score is -0.21.
Taken in the same sequence, the figures for `CC(=O)c1cccc(-n2ccnc2-c2ccc(Cn3cccn3)cc2)c1` were -8% and 1.13.
The corresponding values for `Cc1nc(C(C)C)sc1C(=O)N1CCCn2nc(C#N)cc2C1` are -3% and 0.53.
The corresponding values for `Cc1cc(Br)c2c(c1)CN(C(=O)[C@H](CO)NC(N)=O)CC2` are 14% and -1.81.
For `O=C(CCc1ccccc1)N1C[C@@H](C(=O)N2CCCC2)[C@H](c2cccnc2)C1`, the “% Inhibition” value is recorded as 4% and the Z score was -0.41.
Taken in the same sequence, the figures for `O=S(=O)(Nc1ccc(N2CCN(Cc3ccccc3Cl)CC2)nc1)c1ccc(F)cc1` were -3% and 0.41.
